# From PubChem BioAssay AID903 (National Center for Advancing Translational Sciences (NCATS), 2007)
# About 340 (0.62%) of roughly 55,000 compounds were called active. This list was built around the results that the source calls inconclusive (neither active nor inactive); the mix of calls is not that of the screen. Calls come from the whole dose curve; as a rule, active = well fitted cell-killing curve with a large enough effect; inconclusive = small, poorly fitted or top-dose-only effect; inactive = no such curve, though single readings can be large or run the other way. Potencies of inconclusive entries are doubtful fits and often do not repeat.
# Assay: qHTS Screen for Compounds that Selectively Target Cancer Cells with p53 Mutations: Cytotoxicity of p53 Null Cells at the Permissive Temperature; note: nearly all actives have a fitted effect of over 55% in size;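 for activity change, negative = cytotoxicity: 0% = DMSO only and -100% = full killing by 100 µM tamoxifen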
# Settings: H1299-neo p53 null cells, ATP luminescence, 24 h, 32C; series mostly up to 46.1 µM; activity change, negative = cytotoxicity: at the top concentration
# Outline: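 Cytotoxicity: H1299-neo (no p53), 32C, 24 h treatment. Concentrations up to 46 uM. Readout cellular ATP, luminescence. Normalization to DMSO basal and tamoxifen 100 uM maximal kill.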
# Tags give direction and shape of the fitted curve.
Structure (SMILES),Potency,"activity change, negative = cytotoxicity"
O=C(NCc1ccc(Cl)cc1)c1ccc2c(c1)NC(=O)C(CS(=O)(=O)Cc1ccccc1Cl)N2 (stereo unspecified),"inconclusive: 31.6 µM [cytotoxic, single point]",–
CCOc1ccc(S(=O)(=O)c2c[nH]c3ccccc3c2=O)cc1,"inconclusive: 5.62 µM [cytotoxic, single point]",–
NS(=O)(=O)c1ccc(CCNC(=O)c2ccc3nc(Cc4ccccc4)oc3c2)cc1,–,inactive: 1.74%
COc1ccc(CCNC(=O)c2cnc3sc(N4CCC(C)CC4)nn3c2=O)cc1OC,–,inactive: -5.31%
COC(=O)c1ccc2c(=O)n(CCCCCC(=O)N3CCN(c4cc(Cl)ccc4C)CC3)c(=O)[nH]c2c1,active: 20 µM,–
COc1ccc(Nc2c3c(nc4ccc(NC(=O)c5ccc(F)cc5)cc24)CCCC3)cc1OC,"inconclusive: 35.5 µM [cytotoxic, single point]",–
CC(=O)Nc1ccc(S(=O)(=O)NCC2CCC(C(=O)NCCN(CC(C)C)CC(C)C)CC2)cc1 (stereo unspecified),"inconclusive: 0.01 µM [cytotoxic, full curve, poor fit]",–
COc1cccc(CNc2cc(C)nc3nc(-c4ccc(C)cc4)nn23)c1,"inconclusive: 12.6 µM [cytotoxic, partial curve]",–
CCn1cc(C(=O)N2CCN(c3cccc(C)c3C)CC2)c2cc(OC)c(OC)cc2c1=O,–,inactive: 18.5%
Cc1cc(NC(=O)CSc2ncc(C(=O)Nc3ccc(F)cc3)c(=O)n2C)no1,–,inactive: 10.1%
COc1ccccc1-c1nnc(C2CCN(C(=O)c3ccc(C)cc3)CC2)o1,"inconclusive: 5.62 µM [cytotoxic, single point]",–
CC(C)C(=O)Nc1cccc(-c2nc3ccccc3c(=O)o2)c1,"inconclusive: 22.4 µM [cytotoxic, single point]",–
CC(=O)Nc1ccc(/C=N/Nc2nc3ccccc3[nH]2)cc1,"inconclusive: 22.4 µM [cytotoxic, single point]",–
CCOc1ccc(CCNC(=O)CCCn2nc(C)c3sc4ccccc4c3c2=O)cc1OCC,"inconclusive: 31.6 µM [cytotoxic, single point]",–
COc1ccc(C(=O)c2sc3nc(-c4ccc(F)cc4)ccc3c2N)cc1,–,inactive: -5.71%
COc1ccc(C(=O)Nc2ccc(S(=O)(=O)N(Cc3ccccc3)c3ccccc3)cc2)cc1,–,inactive: 13.1%
COc1ccccc1NC(=O)CN1C(=O)c2ccccc2Sc2ccc(C(=O)N3CCCC3)cc21,"inconclusive: 0.0251 µM [cytotoxic, full curve, poor fit]",–
CC(=O)c1ccccc1OCC(O)Cn1c(CO)nc2ccccc21 (stereo unspecified),"inconclusive: 10 µM [cytotoxic, partial curve]",–
CCN(CC)CCCNC(=O)c1nn(C)c2c1CSc1ccccc1-2,"inconclusive: 25.1 µM [cytotoxic, single point]",–
COc1ccc(C(=O)NNc2ncnc3c2cnn3-c2cccc(Cl)c2)cc1OC,"inconclusive: 25.1 µM [cytotoxic, single point]",–
O=C(Oc1ccc2ccccc2c1Cl)N1CCCCCC1,"inconclusive: 17.8 µM [cytotoxic, single point]",–
Cc1cc(C)cc(NC(=O)CSc2oc(-c3ccco3)nc2S(=O)(=O)c2ccc(Cl)cc2)c1,"inconclusive: 12.6 µM [cytotoxic, partial curve]",–

Structure (SMILES),Potency,"activity change, negative = cytotoxicity"
CCCOc1ccc(CNC(=O)CCCn2nc(C)c3sc4ccccc4c3c2=O)cc1,"inconclusive: 20 µM [cytotoxic, single point]",–
CCS(=O)(=O)c1ncc(Cl)c(C(=O)Nc2c(C(=O)Nc3cccc(C)c3)oc3ccccc23)n1,"inconclusive: 31.6 µM [cytotoxic, single point]",–
COc1ccccc1N1CCN(C(CNC(=O)C(=O)NCc2ccc(F)cc2)c2cccnc2)CC1 (stereo unspecified),"inconclusive: 35.5 µM [cytotoxic, single point]",–
COCCCNc1ncnc2c1cnn2-c1ccc(F)cc1,"inconclusive: 25.1 µM [cytotoxic, partial curve, poor fit]",–
Cc1ccccc1Nc1c(-c2ccc(N3CCOCC3)cc2)nc2ncccn12,active: 12.6 µM,–
COC(=O)c1ccc(/C=C/c2ccc3cccc(OC(C)=O)c3n2)cc1,"inconclusive: 11.2 µM [cytotoxic, partial curve, poor fit]",–
O=C(Nc1ccccc1)c1cc2ccccc2o1,"inconclusive: 10 µM [cytotoxic, partial curve]",–
COc1cc(C(=O)Nc2ccc3oc(-c4ccccc4)nc3c2)cc(OC)c1OC,"inconclusive: 31.6 µM [cytotoxic, single point]",–
CCOc1ccccc1NC(=O)Nc1nnc(N2CCCCCC2)s1,"inconclusive: 12.6 µM [cytotoxic, partial curve]",–
CCc1c(C)nc2nncn2c1Nc1ccc(C(C)C)cc1,–,inactive: -3.5%
COc1ccc(-c2nc(-c3ccccc3)c(-c3ccc(O)cc3)[nH]2)cc1,"inconclusive: 15.8 µM [cytotoxic, single point]",–
CC(C)CN1CCc2nc(N3CCN(c4ncccn4)CC3)ncc2C1,–,inactive: -4.2%
O=C(COC(=O)CCCC1=NS(=O)(=O)c2ccccc2N1)Nc1ccc(Br)cc1,–,inactive: -4.91%
Cc1ccc(-c2nc3cc(C(C)C)ccc3o2)cc1NC(=O)c1cccs1,"inconclusive: 15.8 µM [cytotoxic, single point]",–
CCOC(=O)c1cc(C)n(CC2CCC(C(=O)Nc3ccc(Cl)cc3)CC2)c1C (stereo unspecified),–,inactive: -1.86%
CCOc1ccc(-c2nc(-c3cccnc3)no2)cc1,"inconclusive: 7.94 µM [cytotoxic, partial curve]",–
Cc1ccc(NC(=O)c2oc3ccccc3c2NC(=O)c2cc3ccccc3o2)cc1,"inconclusive: 12.6 µM [cytotoxic, single point]",–
CCOC(=O)N1CCC(NC(=O)c2cnn(-c3cccc(Cl)c3C)c2C2CCN(C(=O)OC(C)(C)C)CC2)CC1,–,inactive: 12%
Cc1cccn2c(=O)c3cc(C(=O)NCc4ccccc4)c(=N)n(CCOCCO)c3nc12,–,inactive: 1.26%
Cc1cc(C)cc(NC(=O)Cn2c(=O)c3ccccc3n3nncc23)c1,"inconclusive: 35.5 µM [cytotoxic, single point]",–
Cc1ccc(-n2ncc3c(Nc4ccccc4C)ncnc32)cc1,"inconclusive: 12.6 µM [cytotoxic, partial curve]",–
Cc1nc2sc(C(N)=O)c(N)c2c(-c2ccc(Br)cc2)c1C(=O)Nc1ccc(Cl)cc1,"inconclusive: 31.6 µM [cytotoxic, single point]",–

Structure (SMILES),Potency,"activity change, negative = cytotoxicity"
Cc1ccc(C(=O)Nc2onc3c2CCCC3)cc1,active: 6.31 µM,–
Cc1ccccc1C(=O)Nc1ccc2c(c1)CCCN2C(=O)c1cccs1,"inconclusive: 8.91 µM [cytotoxic, partial curve]",–
COC(=O)c1scc(-c2ccc(C)cc2)c1S(=O)(=O)N1CCN(c2ccc(OC)cc2)CC1,–,inactive: -1.02%
O=C1c2[nH]nc(-c3ccc(Br)cc3)c2C(c2cccc(O)c2)N1c1ccc(Cl)cc1 (stereo unspecified),"inconclusive: 35.5 µM [cytotoxic, single point]",–
Cc1ccc([N+](=O)[O-])c(OCCN2CCNCC2)c1,"inconclusive: 8.91 µM [cytotoxic, partial curve, poor fit]",–
CCCn1c(CCC(=O)Nc2ccc(OCC)cc2)nc2cccnc21,"inconclusive: 35.5 µM [cytotoxic, single point]",–
COC(=O)NCC(c1cccnc1)N1CCN(c2ccc(F)cc2)CC1 (stereo unspecified),"inconclusive: 28.2 µM [cytotoxic, single point]",–
CCOc1ccc(CCNC(=O)CCCn2c(=O)c3cccn3c3ccccc32)cc1,–,inactive: 6.77%
Cc1ccc(NS(=O)(=O)c2ccc3[nH]c4c(c3c2)CCCC4)cc1N(C)C,–,inactive: 16.8%
COc1cccc(NC(=O)c2ccc3c(c2)CCN3S(C)(=O)=O)c1,"inconclusive: 12.6 µM [cytotoxic, partial curve]",–
Cc1cc(C)cc(-n2c(SCC(=O)N3CCOCC3)nc3c([nH]c4ccccc43)c2=O)c1,"inconclusive: 2.82 µM [cytotoxic, single point]",–
COc1ccc2nc(C)cc(Nc3ccc(Cl)c(Cl)c3)c2c1,"inconclusive: 31.6 µM [cytotoxic, single point]",–
COc1ccccc1Nc1nn2c(=O)c3ccc(C(=O)NCCC4=CCCCC4)cc3nc2s1,"inconclusive: 10 µM [cytotoxic, partial curve]",–
Cc1ccc(OCc2ccc(-c3nc(C#N)c(NCc4ccccc4Cl)o3)o2)cc1,"inconclusive: 12.6 µM [cytotoxic, partial curve]",–
CC(=O)N1CCCC1c1nc2ccccc2n1Cc1ccccc1C (stereo unspecified),"inconclusive: 31.6 µM [cytotoxic, single point]",–
COc1ccc(CC2C(=O)Nc3ccc(Br)cc32)cc1OC (stereo unspecified),–,inactive: -6.67%
COc1ccc(OCc2cccc(C(=O)N3CCCC3)c2)cc1,"inconclusive: 12.6 µM [cytotoxic, partial curve]",–
CN(C(=O)Cn1nnc(-c2ccc(S(C)(=O)=O)cc2)n1)c1ccccc1,"inconclusive: 31.6 µM [cytotoxic, single point]",–
Cc1nn(-c2ccccc2)c2sc(C(=O)Nc3cccc(Br)c3)cc12,"inconclusive: 20 µM [cytotoxic, single point]",–
CCOC(=O)c1c(NC(=O)COc2ccc(Br)cc2)sc(C(C)=O)c1C,–,inactive: -2.9%
O=C(COc1ccc(F)cc1)Nc1ccc(Cl)c(-c2nc3ccccc3[nH]2)c1,"inconclusive: 31.6 µM [cytotoxic, single point]",–
COc1ccccc1OCc1nc(-c2cccc(C)c2)no1,"inconclusive: 12.6 µM [cytotoxic, single point]",–
